From the supplement of paper PMC8728848
Some of the results follow.

Legend:
Assay in all cases: glycan array binding signal (z-score within array); higher = stronger binding
Details in all cases: glycan notation: IUPAC condensed, linker removed
[1] = molecular target: Gal(b1-4)GlcNAc(b1-3)Gal(b1-4)GlcNAc(b1-3)[Gal(b1-4)GlcNAc(b1-3)Gal(b1-4)GlcNAc(b1-6)]GalNAc
Outline: (§1)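 Columns mapping to the same glycan were averaged after glycan names were converted to IUPAC-condensed notation. The data come from 3228 arrays in the Consortium for Functional Glycomics database, limited to those with an available protein sequence. Binding is reported as a within-array Z-score averaged across arrays of one protein sequence and across linkers.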

[2] = molecular target: Gal(b1-4)GlcNAc(b1-3)Gal(b1-4)GlcNAc(b1-6)[Gal(b1-3)]GalNAc
Outline: as §1

[3] = molecular target: Gal(b1-4)GlcNAc(b1-3)Gal(b1-4)[Fuc(a1-3)]GlcNAc(b1-3)Gal(b1-4)[Fuc(a1-3)]GlcNAc
Outline: as §1

[4] = molecular target: Gal(b1-4)GlcNAc(b1-3)GalNAc
Outline: as §1

[5] = molecular target: Gal(b1-4)GlcNAc(b1-3)[Fuc(a1-3)GlcNAc(b1-6)]Gal(b1-4)Glc
Outline: as §1

[6] = molecular target: Gal(b1-4)GlcNAc(b1-3)[Gal(b1-4)GlcNAc(b1-6)]Gal(b1-4)GlcNAc
Outline: as §1

[7] = molecular target: Gal(b1-4)GlcNAc(b1-3)[GlcNAc(b1-6)]Gal(b1-4)GlcNAc
Outline: as §1

[8] = molecular target: Gal(b1-4)GlcNAc(b1-6)Gal(b1-4)GlcNAc
Outline: as §1

[9] = molecular target: Gal(b1-4)GlcNAc(b1-6)GalNAc
Outline: as §1

[10] = molecular target: Gal(b1-4)GlcNAc(b1-6)[Gal(b1-3)]GalNAc
Outline: as §1

[11] = molecular target: Gal(b1-4)GlcNAc(b1-6)[Gal(b1-4)GlcNAc(b1-3)]GalNAc
Outline: as §1

Gal(b1-4)GlcNAc6P = molecular target: Gal(b1-4)GlcNAc6P
Outline: as §1

Gal(b1-6)Gal = molecular target: Gal(b1-6)Gal
Outline: as §1

Gal3S(b1-3)GalNAc = molecular target: Gal3S(b1-3)GalNAc
Outline: as §1

Gal3S(b1-3)GlcNAc = molecular target: Gal3S(b1-3)GlcNAc
Outline: as §1

[12] = molecular target: Gal3S(b1-3)[Fuc(a1-4)]GlcNAc
Outline: as §1

Gal3S(b1-4)Glc = molecular target: Gal3S(b1-4)Glc
Outline: as §1

Gal3S(b1-4)Glc6S = molecular target: Gal3S(b1-4)Glc6S
Outline: as §1

Gal3S(b1-4)GlcNAc = molecular target: Gal3S(b1-4)GlcNAc
Outline: as §1

[13] = molecular target: Gal3S(b1-4)[Fuc(a1-3)]Glc6S
Outline: as §1

[14] = molecular target: Gal3S(b1-4)[Fuc(a1-3)]GlcNAc
Outline: as §1

[15] = molecular target: Gal3S(b1-4)[Fuc(a1-3)]GlcNAc6S
Outline: as §1

Gal3S4S(b1-4)GlcNAc = molecular target: Gal3S4S(b1-4)GlcNAc
Outline: as §1

Gal3S6S(b1-4)GlcNAc = molecular target: Gal3S6S(b1-4)GlcNAc
Outline: as §1

Gal3S6S(b1-4)GlcNAc6S = molecular target: Gal3S6S(b1-4)GlcNAc6S
Outline: as §1

Gal4S(b1-4)GlcNAc = molecular target: Gal4S(b1-4)GlcNAc
Outline: as §1

Gal4S6S(b1-4)GlcNAc = molecular target: Gal4S6S(b1-4)GlcNAc
Outline: as §1

Gal6P(b1-4)GlcNAc = molecular target: Gal6P(b1-4)GlcNAc
Outline: as §1

Gal6S(b1-3)GlcNAc = molecular target: Gal6S(b1-3)GlcNAc
Outline: as §1

Gal6S(b1-3)GlcNAc6S = molecular target: Gal6S(b1-3)GlcNAc6S
Outline: as §1

Gal6S(b1-4)Glc = molecular target: Gal6S(b1-4)Glc
Outline: as §1

Gal6S(b1-4)Glc6S = molecular target: Gal6S(b1-4)Glc6S
Outline: as §1

Gal6S(b1-4)GlcNAc = molecular target: Gal6S(b1-4)GlcNAc
Outline: as §1

Gal6S(b1-4)GlcNAc6S = molecular target: Gal6S(b1-4)GlcNAc6S
Outline: as §1

GalNAc(a1-3)Gal = molecular target: GalNAc(a1-3)Gal
Outline: as §1

GalNAc(a1-3)GalNAc = molecular target: GalNAc(a1-3)GalNAc
Outline: as §1

[16] = molecular target: GalNAc(a1-3)GalNAc(b1-3)Gal(a1-4)Gal(b1-4)Glc
Outline: as §1

[17] = molecular target: GalNAc(a1-3)GalNAc(b1-3)Gal(a1-4)Gal(b1-4)GlcNAc
Outline: as §1

GalNAc(b1-3)Gal = molecular target: GalNAc(b1-3)Gal
Outline: as §1

[18] = molecular target: GalNAc(b1-3)Gal(a1-4)Gal(b1-4)GlcNAc
Outline: as §1

[19] = molecular target: GalNAc(b1-3)Gal(a1-4)Gal(b1-4)GlcNAc(b1-3)Gal(b1-4)Glc
Outline: as §1

[20] = molecular target: GalNAc(b1-3)Gal(a1-6)Gal(b1-4)Glc
Outline: as §1

GalNAc(b1-3)GalNAc = molecular target: GalNAc(b1-3)GalNAc
Outline: as §1

GalNAc(b1-3)GlcNAc = molecular target: GalNAc(b1-3)GlcNAc
Outline: as §1

GalNAc(b1-4)Gal(b1-4)Glc = molecular target: GalNAc(b1-4)Gal(b1-4)Glc
Outline: as §1

B1: EPL1 (Trichoderma atroviride), A0PCX2 (protein)
chain: MQLSNLFKLALFTAAVSADTVSYDTGYDDASRSLTVVSCSDGTNGLITRYHWQTQGQIPRFPYIGGAQAVAGWNSPNCGTCWKLTYSGKTIYVLAIDHTAAGFNIGLDAMNALTNGNAVALGRVSATASQVAVSNCGL
B1 was tested, and the “glycan array binding signal (z-score)” value [1] was -0.344, the “glycan array binding signal (z-score)” value [2] was -0.113 and the “glycan array binding signal (z-score)” value [3] was 0.129. The “glycan array binding signal (z-score)” value [4] was -0.325, the “glycan array binding signal (z-score)” value [5] was 0.282 and the “glycan array binding signal (z-score)” value [6] was 0.164. For the same binder, the “glycan array binding signal (z-score)” value [7] was 0.635, the “glycan array binding signal (z-score)” value [8] was 0.31 and the “glycan array binding signal (z-score)” value [9] was -0.071. The “glycan array binding signal (z-score)” value [10] was -0.254, the “glycan array binding signal (z-score)” value [11] was -0.124 and the “glycan array binding signal (z-score)” value (Gal(b1-4)GlcNAc6P) was -0.183. For the same binder, the “glycan array binding signal (z-score)” value (Gal(b1-6)Gal) was -0.376, the “glycan array binding signal (z-score)” value (Gal3S(b1-3)GalNAc) was -0.08 and the “glycan array binding signal (z-score)” value (Gal3S(b1-3)GlcNAc) was 0.668. For the same binder, the “glycan array binding signal (z-score)” value [12] was 0.027, the “glycan array binding signal (z-score)” value (Gal3S(b1-4)Glc) was 0.429 and the “glycan array binding signal (z-score)” value (Gal3S(b1-4)Glc6S) was -0.233. For the same binder, the “glycan array binding signal (z-score)” value (Gal3S(b1-4)GlcNAc) was 0.311, the “glycan array binding signal (z-score)” value [13] was 0.393 and the “glycan array binding signal (z-score)” value [14] was -0.154. For the same binder, the “glycan array binding signal (z-score)” value [15] was 0.172, the “glycan array binding signal (z-score)” value (Gal3S4S(b1-4)GlcNAc) was -0.341 and the “glycan array binding signal (z-score)” value (Gal3S6S(b1-4)GlcNAc) was 0.513. The “glycan array binding signal (z-score)” value (Gal3S6S(b1-4)GlcNAc6S) was 0.395, the “glycan array binding signal (z-score)” value (Gal4S(b1-4)GlcNAc) was 0.422 and the “glycan array binding signal (z-score)” value (Gal4S6S(b1-4)GlcNAc) was 0.159. For the same binder, the “glycan array binding signal (z-score)” value (Gal6P(b1-4)GlcNAc) was -0.624, the “glycan array binding signal (z-score)” value (Gal6S(b1-3)GlcNAc) was 0.112 and the “glycan array binding signal (z-score)” value (Gal6S(b1-3)GlcNAc6S) was 0.192. The “glycan array binding signal (z-score)” value (Gal6S(b1-4)Glc) was 0.047, the “glycan array binding signal (z-score)” value (Gal6S(b1-4)Glc6S) was -0.021 and the “glycan array binding signal (z-score)” value (Gal6S(b1-4)GlcNAc) was 0.196. The “glycan array binding signal (z-score)” value (Gal6S(b1-4)GlcNAc6S) was 0.546, the “glycan array binding signal (z-score)” value (GalNAc(a1-3)Gal) was -0.362 and the “glycan array binding signal (z-score)” value (GalNAc(a1-3)GalNAc) was -0.103. The “glycan array binding signal (z-score)” value [16] was -0.011, the “glycan array binding signal (z-score)” value [17] was -0.162 and the “glycan array binding signal (z-score)” value (GalNAc(b1-3)Gal) was 0.005. For the same binder, the “glycan array binding signal (z-score)” value [18] was 0.183, the “glycan array binding signal (z-score)” value [19] was -0.272 and the “glycan array binding signal (z-score)” value [20] was -0.107. The “glycan array binding signal (z-score)” value (GalNAc(b1-3)GalNAc) was -0.275, the “glycan array binding signal (z-score)” value (GalNAc(b1-3)GlcNAc) was -0.259 and the “glycan array binding signal (z-score)” value (GalNAc(b1-4)Gal(b1-4)Glc) was 0.124.
